# Experimental data reported in PubChem BioAssay AID1347073 (National Center for Advancing Translational Sciences (NCATS), 2019).
# Out of some 45,000 compounds screened, about 200 (0.44%) were called active. Not shown: some 7% with an inconclusive outcome. The call rests on the fitted dose curve; in most records, active means well fitted activation curve with a large enough effect; inconclusive means small, poorly fitted or top-dose-only effect; inactive means no such curve, though single readings can be large or run the other way. Some of the results follow.
# Experiment: qHTS of TDP-43 Inhibitors: NCGC Sytravon Library Screen; further: nearly all actives have a fitted effect of over 55% in size; on growth rescue (activation): 0% is about no effect
# Details: yeast TDP-43 toxicity rescue, BacTiter-Glo growth, 24 h; series mostly up to 46.1 µM; growth rescue (activation): at the top concentration
# Procedure, shortened: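 TDP-43-expressing yeast, pregrown in raffinose, seeded at OD600 0.02 in galactose medium with compound for 24 hr at 30 deg C. Growth read by BacTiter-Glo luminescence, so rescue of toxicity appears as activation.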
# Potency means the concentration at half of the fitted maximal effect.
SMILES,growth rescue (activation),Potency
COc1ccc(CC(=O)Nc2ccc(S(=O)(=O)Nc3nccs3)cc2)cc1,inactive: 3.66%,
Cc1nc2nc(C)c(NS(=O)(=O)c3ccc(CC(C)C)cc3)c(=O)n2[nH]1,inactive: -11%,
Cc1cccc(/C=N/N(CCO)C2=NS(=O)(=O)c3ccccc32)c1,inactive: 0.674%,
CC(C)c1ccc(/C=N/NC(=O)C(=O)NCCCN2CCOCC2)cc1,inactive: -7.92%,
Cc1ccc(NC(=O)CN2CCc3ccccc3C2)cc1F,inactive: -31.9%,
COc1ccccc1CC(NC(C)=O)C(=O)NC1CCN(C(=O)Nc2ccccc2Cl)CC1 (stereo not given),inactive: -5.2%,
Nc1ccccc1N=Cc1ccc(-c2cccc(Cl)c2)o1,inactive: 15.9%,
NC(=O)C1CCN(C2OC(=O)c3ccccc32)CC1 (stereo not given),inactive: 13.2%,
CC1(Cc2ccc(Cl)cc2)C(=O)Nc2c(Cl)ccc(Cl)c21 (stereo not given),inactive: -11.9%,
CN1C(=O)c2ccccc2C(C(=O)O)C1c1cccc([N+](=O)[O-])c1 (stereo not given),inactive: 10.4%,
O=C(Nc1ccc2c(c1)OCO2)c1cc(-c2cccnc2)nc2ccccc12,inactive: 6.48%,
COc1ccc(S(=O)(=O)Nc2ccc(NC(C)=O)cc2)cc1Br,inactive: -0.799%,
COC(=O)c1cc(Sc2cccc(Cl)c2Cl)ccn1,,active: 12.6 µM
O=C(CNC(=O)c1cccs1)N/N=C/c1ccccc1[N+](=O)[O-],inactive: 4.56%,
CC(Cn1cncn1)C(=O)N1CCN(S(=O)(=O)c2ccc(Cl)cc2)CC1 (stereo not given),inactive: 19.2%,
CC(C)(C)c1ccc(S(=O)(=O)Nc2ccccn2)cc1,inactive: 4.06%,
S=C(NCc1ccccc1)Nc1ccc2cn[nH]c2c1,inactive: -9.69%,
Cc1occc1-c1nnc(SCC(=O)NCCc2ccccc2)o1,inactive: 11.9%,
CCC[n+]1c2ccccc2cc2ccccc21,inactive: 18%,
CN(Cc1cc([N+](=O)[O-])ccc1Cl)C(=O)C[n+]1ccccc1,inactive: 4.22%,
O=C(Nc1ccc(S(=O)(=O)Nc2ccnn2-c2ccccc2)cc1)C(F)(F)F,inactive: -7.45%,
Cc1ccc(NC(=S)N(CCN2CCCCC2)Cc2ccco2)cc1C,inactive: -8.07%,
CCOc1ccc2[nH]c(C(=O)N/N=C/c3cc(OC)c(OC)c(OC)c3)cc2c1,inactive: 7.69%,
CCc1ccc(S(=O)(=O)Nc2cc(SCC(=O)O)c(O)c3ccccc23)cc1,inactive: 8.76%,
COC(=O)c1ccccc1NC(=O)[C@H]1O[C@@H]2OC(C)(C)O[C@@H]2[C@H]2OC(C)(C)O[C@H]21,inactive: 16.3%,
O=[N+]([O-])c1ccc(O)c(Nc2c([N+](=O)[O-])ccc3nonc23)c1,inactive: -1.62%,
CC(=O)Nc1ccc(NC(=O)CCCc2c[nH]c3ccccc23)cc1,inactive: -12.5%,

SMILES,growth rescue (activation),Potency
COCCCNC(=O)c1sc2ncn(CC(=O)Nc3ccc(C)c(Cl)c3)c(=O)c2c1C,inactive: 11.9%,
O=C(NCCCN1CCOCC1)c1ccc(CSCc2cccc(Cl)c2)o1,inactive: 4.63%,
COc1ccc(N(CC(=O)Nc2ccc3c(c2)OCO3)S(=O)(=O)c2ccc(F)cc2)cc1,inactive: -15.2%,
CCN(CC)CCNC(=O)c1ccc(NC(=O)/C=C/c2cc(OC)c(OC)c(OC)c2)cc1,inactive: 12.3%,
Cc1ccc(NC(=O)Cc2nnc(SCC(=O)NC3=NCCS3)n2C)cc1,inactive: 12.4%,
CCCCOc1nc(N2CCOCC2)nc(C)c1[N+](=O)[O-],inactive: 10.2%,
CCN(C(=O)CN1c2ccccc2CC1C)c1c(N)n(Cc2ccccc2)c(=O)[nH]c1=O (stereo not given),inactive: -0.713%,
CCn1cc(CN(C)S(=O)(=O)c2cccc([N+](=O)[O-])c2)cn1,inactive: -1.36%,
Cc1ccc2nc(/C=C/c3cccc(F)c3)ccc2c1,inactive: 27.2%,
COCCn1c(=S)[nH]c2sc3c(c2c1=O)CCC(C)C3 (stereo not given),inactive: 17.1%,
CCOc1ccc(N2CC(C(=O)Nc3cc(C)on3)CC2=O)cc1 (stereo not given),inactive: -6.19%,
Cc1ccc(/C=C/C(=O)Nc2ccncc2)o1,inactive: -2.94%,
COc1ccc(-c2cc(C(F)F)n3ncc(C(=O)n4ccnc4C)c3n2)cc1,inactive: -25.3%,
COc1ccc(NC(=O)NC2(C(=O)N3CCCCC3)CCCCC2)cc1,inactive: 1.68%,
COc1ccc(S(=O)(=O)CC(=O)Nc2ccccc2Cl)cc1,inactive: 5.86%,
COc1cccc(C(O)c2ncc(-c3cccc(F)c3)[nH]2)c1 (stereo not given),inactive: 7.05%,
Cc1cc(N/N=C/c2ccc(O)cc2O)nc(N2CCOCC2)n1,inactive: 6.69%,
O=c1[nH]c(SCc2nc3ccccc3c(=O)n2-c2ccccc2)nc2ccccc12,inactive: 16.5%,
Cc1ccc(S(=O)(=O)N2CCN(C(=O)c3ccc4c(c3)OCO4)CC2)cc1,inactive: -2.11%,
CN(Cc1cn(-c2ccccc2)nc1-c1ccc(Cl)cc1)C(=O)CCC(=O)O,inactive: -0.249%,
Cc1ccsc1C(=O)N1CCC1(C)C(=O)NS(=O)(=O)c1ccccc1 (stereo not given),inactive: -10%,
CCN(CC)S(=O)(=O)c1ccc(C(=O)N(c2ccccc2)C2C=CS(=O)(=O)C2)cc1 (stereo not given),inactive: 7.49%,
CC1=NC(C)(C)Cc2c(C)cccc21,inactive: 4.46%,
Cc1ccc(-c2nnc(N3CCOCC3)c3ccccc23)cc1S(=O)(=O)NCC1CCCO1 (stereo not given),inactive: -9.67%,
CC(=O)c1cccc(NC(=O)CCCSc2ccccc2)c1,inactive: 11.9%,
CN(C(=O)CSc1nnc2n1CCCCC2)C1(C#N)CCCCC1,inactive: 7.87%,
CC(=O)c1cccc(N(C(=O)Cn2nnc3ccccc32)C(C(=O)NCc2ccccc2)c2ccccn2)c1 (stereo not given),inactive: 4.27%,

SMILES,growth rescue (activation),Potency
Cc1ccccc1N(C(=O)c1snc(C(N)=O)c1N)C(C(=O)NC1CCCC1)c1ccco1 (stereo not given),inactive: 3.23%,
CC(=O)Nc1ccc(C(=O)CSc2nnnn2C)cc1,inactive: 0.0723%,
Cc1ccc(NC(=O)C2CCCN2C(=O)c2cccs2)c(C)c1 (stereo not given),inactive: 4.35%,
NC(CCc1ccccc1)c1csc(NC(=O)Nc2ccccc2Oc2ccccc2)n1 (stereo not given),inactive: 12.4%,
CCc1cccc(CC)c1NC(=O)CCCSc1nc2ccccc2s1,inactive: 11.1%,
Cc1nn(-c2ccccc2)c2[nH]c(=O)cc(C(F)(F)F)c12,inactive: -84.2%,
CC1CCN(S(=O)(=O)c2ccc(NC(=O)[C@@H]3CCCC[C@@H]3C(=O)O)cc2)CC1,inactive: 28.8%,
Cc1cc(C)c(C)c(N=Nc2nc3ccccc3n2C)c1C,inactive: 23.1%,
COCC(C)NC(=O)c1ccccc1[N+](=O)[O-] (stereo not given),inactive: 8.03%,
CCN(CC)C(=O)Cn1c(=O)n(CCCCCC(=O)NCc2ccc3c(c2)OCO3)c(=O)c2sccc21,inactive: -4.44%,
Cc1ccc(C2C3=C(CC(C)(C)CC3=O)N=C3c4ccccc4C(=O)C32)cc1 (stereo not given),inactive: 5.85%,
CCN(C(=O)COc1ncnc2ccccc12)C1CCCCC1,inactive: -7.71%,
COc1ccccc1N(C)S(=O)(=O)c1ccc(C(=O)Nc2nnc(C)s2)cc1,inactive: 11.6%,
Cc1ccccc1C1C(C#N)=C(N)N(N(C)C)C2=C1C(=O)CC(C)(C)C2 (stereo not given),inactive: 11.8%,
COc1cccc(C(=O)/C=C/Nc2ccc(S(=O)(=O)Nc3nc(C)cc(C)n3)cc2)c1,inactive: -8.23%,
O=c1c2cc(Br)ccc2[nH]c(=S)n1Cc1ccccc1,inactive: 1.9%,
Cc1cc(C)n(-c2cc(N3CCN(S(=O)(=O)c4ccc(C)c(C)c4)CC3)ccc2[N+](=O)[O-])n1,inactive: 12.9%,
Cc1noc(NS(=O)(=O)c2ccc(NC(=O)c3cccc(S(=O)(=O)Nc4ccccc4F)c3)cc2)c1C,inactive: 38.2%,
Cc1cc(C)c(NC(=O)Cn2c(=O)oc3cc(S(=O)(=O)N4CCCCCC4)ccc32)c(C)c1,inactive: 3.9%,
Cc1cccc(N(CC(N)=O)C2SC(=O)NC2=O)c1 (stereo not given),inactive: 1.69%,
O=C(OCC(=O)N1c2ccccc2Sc2ccccc21)c1ccc[n+]([O-])c1,inactive: -3.04%,
CCOC(=O)C1(Cc2ccc(OC)cc2)CCN(C(=O)CN2CCN(CC)CC2)CC1,inactive: 10.7%,
O=[N+]([O-])c1ccc(O)c(Nc2ncnc3ccccc23)c1,inactive: -1.43%,
CC1(C)Oc2ccc3ccc(=O)oc3c2-c2cn[nH]c21,inactive: 14.9%,
COCCN(C(=S)Nc1cc(C)cc(C)c1)C(C)c1cccnc1 (stereo not given),inactive: 10.6%,
Cc1ccc(-n2cc(CNCCn3nc(C)cc3C)c(-c3ccc(F)cc3)n2)cc1,inactive: -1.04%,
CC1CCCCC1NC(=O)CSc1nnc(-c2ccncc2)n1CCCN(C)C (stereo not given),inactive: 3.23%,

SMILES,growth rescue (activation),Potency
CN(C)c1ccc(C(=O)OCC(=O)c2cccs2)cc1,inactive: 11.5%,
CCC(=O)NC(=S)Nc1ccc(NC(=O)c2ccco2)c(OC)c1,inactive: 23.4%,
CC1CCc2c(nc3ncnn3c2NCCc2ccccc2F)C1 (stereo not given),inactive: 22.7%,
COc1ccc(OC)c(CN2CCC(C(=O)N3CCOCC3)CC2)c1,inactive: -43.3%,
COc1cccc(NC(=O)C2(C)CCN2CCc2ccccc2)c1 (stereo not given),inactive: 3.47%,
CN1C(=O)N(C)C2(c3ccccc3)N(C(C)(C)C)C(=O)NC12c1ccccc1 (stereo not given),inactive: -8.32%,
COc1ccc(CCNC(=O)CSc2nc(-c3ccc(OC)c(OC)c3)ccc2C#N)cc1,inactive: -7.88%,
CCOP(=O)(OCC)C(NC(=O)c1cccs1)c1ccccc1 (stereo not given),inactive: 3.15%,
COc1ccccc1C1C2=C(CCCC2=O)N(CC(=O)O)C2=C1C(=O)CCC2,inactive: 9.01%,
Cc1ccc2nc3c(cc(C(=O)NCC4CCCO4)c(=N)n3C3CCCC3)c(=O)n2c1 (stereo not given),inactive: -34.9%,
CC(C)c1ccc(N(CC(=O)NC2CCCC2)C(=O)CCC(=O)Nc2nccs2)cc1,inactive: -1.18%,
O=C(CCCN1C(=O)/C(=C/c2cccc(Br)c2)SC1=S)N1CCOCC1,inactive: -0.385%,
O=[N+]([O-])c1ccc(S(=O)(=O)NCCc2ccncc2)cc1,inactive: 6.76%,
CN(C)S(=O)(=O)c1ccc(NC(=O)N2CCN(c3ccccc3)CC2)cc1,inactive: -4.47%,
O=C(CN1CCC(NC(=O)c2ccco2)CC1)Nc1ccccc1C(F)(F)F,inactive: -10.1%,
Cn1c(N)c(C(=O)COC(=O)c2ccccc2NCc2ccco2)c(=O)n(C)c1=O,inactive: 4.02%,
COc1ccc(S(=O)(=O)N(CC(=O)NCc2ccncc2)c2cc(C)cc(C)c2)cc1OC,inactive: -2.42%,
O=C(/C=C/Nc1ccc(S(=O)(=O)Nc2ncccn2)cc1)c1ccc2ccccc2c1,inactive: -11.6%,
COc1ccc(/C=C/C(=O)Nc2nc(N)n(-c3ccccc3)n2)cc1,inactive: 15%,
CCCCCCCC(=O)N/N=C/c1ccncc1,inactive: 0.757%,
O=C(O)c1cc(-c2cccs2)[nH]n1,inactive: 0.0738%,
CNC(=O)C1CC(=O)N(c2ccc(OCC(=O)N3CCCC3)cc2)C1 (stereo not given),inactive: -5.6%,
COc1ccc(C(=O)NC(=S)Nc2cc3oc4ccccc4c3cc2OC)cc1,inactive: 6.84%,
O=C(c1ccncc1)N1CCN(c2cccc(C(F)(F)F)c2)CC1,inactive: -21.8%,
